# Some of the results follow. Most values come without repeats; read them as rough.
# System: WM1716
# Experiment: cell count relative to DMSO control; melanoma cells; higher = more viable cells
# Settings: library dose: low library concentration; 72 h
# 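Further: cell number obtained by counting DAPI-stained nuclei in high-throughput microscope images with image analysis software, screen run in 1,536-well plates.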
row,Structure (SMILES),cell count [%]
1,"Cc1cc(Nc2cc(N3CCN(C)CC3)nc(Sc3ccc(NC(=O)C4CC4)cc3)n2)n[nH]1 [Tozasertib] + CCc1ccc(CCOc2ccc(CC3SC(=O)NC3=O)cc2)nc1 [pioglitazone] (first compound 0.006 µM, partner dose 2 µM)",90.6
2,"CC[C@]1(O)C[C@H]2CN(CCc3c([nH]c4ccccc34)[C@@](C(=O)OC)(c3cc4c(cc3OC)N(C=O)[C@H]3[C@@](O)(C(=O)OC)[C@H](OC(C)=O)[C@]5(CC)C=CCN6CC[C@]43[C@@H]65)C2)C1 [vincristine] + COc1cc2ncnc(Nc3ccc(Oc4ccccc4)cc3)c2cc1OC [SrcI1] (first compound 0.0001 µM, partner dose 2 µM)",32.3
3,"N#CC[C@H](C1CCCC1)n1cc(-c2ncnc3[nH]ccc23)cn1 [ruxolitinib] + O=C(/C=C/c1cccnc1)NCCCCC1CCN(C(=O)c2ccccc2)CC1 [FK866] (first compound 1 µM, partner dose 0.01 µM)",100
4,"Cc1cc(Nc2cc(N3CCN(C)CC3)nc(Sc3ccc(NC(=O)C4CC4)cc3)n2)n[nH]1 [Tozasertib] + Cc1cc(Nc2cc(N3CCN(C)CC3)nc(/C=C/c3ccccc3)n2)n[nH]1 [ENMD2076] (first compound 0.006 µM, partner dose 0.04 µM)",99
5,"Cc1cc(Nc2cc(N3CCN(C)CC3)nc(Sc3ccc(NC(=O)C4CC4)cc3)n2)n[nH]1 [Tozasertib] + O=c1[nH]nc(Sc2ncc([N+](=O)[O-])s2)n1-c1ccc2c(c1)OCCO2 [BI78D3] (first compound 0.006 µM, partner dose 0.2 µM)",85.9
6,"N#CC[C@H](C1CCCC1)n1cc(-c2ncnc3[nH]ccc23)cn1 [ruxolitinib] + CN(NC(=O)CC(=O)NN(C)C(=S)c1ccccc1)C(=S)c1ccccc1 [STA4783] (first compound 1 µM, partner dose 0.006 µM)",86.8
7,"CC[C@]1(O)C[C@H]2CN(CCc3c([nH]c4ccccc34)[C@@](C(=O)OC)(c3cc4c(cc3OC)N(C=O)[C@H]3[C@@](O)(C(=O)OC)[C@H](OC(C)=O)[C@]5(CC)C=CCN6CC[C@]43[C@@H]65)C2)C1 [vincristine] + COC(=O)c1sccc1S(=O)(=O)Nc1ccc(Nc2ccccc2)cc1OC [GSK0660] (first compound 0.0001 µM, partner dose 1 µM)",42.5
8,"Cc1cc(Nc2cc(N3CCN(C)CC3)nc(Sc3ccc(NC(=O)C4CC4)cc3)n2)n[nH]1 [Tozasertib] + CC(C)CCN1c2nc(Nc3cc(F)c(O)c(F)c3)ncc2N(C)C(=O)C1C [BID1870] (first compound 0.006 µM, partner dose 0.2 µM)",95.8
9,"Cc1cc(Nc2cc(N3CCN(C)CC3)nc(Sc3ccc(NC(=O)C4CC4)cc3)n2)n[nH]1 [Tozasertib] + Cc1cn(-c2cc(NC(=O)c3ccc(C)c(Nc4nccc(-c5cccnc5)n4)c3)cc(C(F)(F)F)c2)cn1 [nilotinib] (first compound 0.006 µM, partner dose 0.2 µM)",91.1
10,"N#CC[C@H](C1CCCC1)n1cc(-c2ncnc3[nH]ccc23)cn1 [ruxolitinib] + O=C(Nc1ccccc1)c1cc([N+](=O)[O-])ccc1Cl [GW9662] (first compound 1 µM, partner dose 2 µM)",97.9
11,"CC[C@]1(O)C[C@H]2CN(CCc3c([nH]c4ccccc34)[C@@](C(=O)OC)(c3cc4c(cc3OC)N(C=O)[C@H]3[C@@](O)(C(=O)OC)[C@H](OC(C)=O)[C@]5(CC)C=CCN6CC[C@]43[C@@H]65)C2)C1 [vincristine] + CC(C)CCN1c2nc(Nc3cc(F)c(O)c(F)c3)ncc2N(C)C(=O)C1C [BID1870] (first compound 0.0001 µM, partner dose 0.2 µM)",44.9
12,"Cc1cc(Nc2cc(N3CCN(C)CC3)nc(Sc3ccc(NC(=O)C4CC4)cc3)n2)n[nH]1 [Tozasertib] + CCCCCCCCCCCCCCCCCCOP(=O)([O-])OC1CC[N+](C)(C)CC1 [Perifosine] (first compound 0.006 µM, partner dose 0.4 µM)",97.2
13,"Cc1cc(Nc2cc(N3CCN(C)CC3)nc(Sc3ccc(NC(=O)C4CC4)cc3)n2)n[nH]1 [Tozasertib] + Cc1cc(N2CCOCC2)cc2[nH]c(-c3c(NC[C@@H](O)c4cccc(Cl)c4)cc[nH]c3=O)nc12 [BMS536924] (first compound 0.006 µM, partner dose 0.2 µM)",96.4
14,"CC[C@]1(O)C[C@H]2CN(CCc3c([nH]c4ccccc34)[C@@](C(=O)OC)(c3cc4c(cc3OC)N(C=O)[C@H]3[C@@](O)(C(=O)OC)[C@H](OC(C)=O)[C@]5(CC)C=CCN6CC[C@]43[C@@H]65)C2)C1 [vincristine] + O=C(O)c1ccc2c(c1)nc(Nc1cccc(Cl)c1)c1ccncc12 [CX4945] (first compound 0.0001 µM, partner dose 0.4 µM)",41.7

# Source: the supplement of paper PMC4604168 (melanoma cell lines)
